These are yes or no findings as the source states them, for the method shown. Binding seen in cells or lysates may run through a third protein. Some entries that bind do so weakly or less than the wild type. For some assays here: Where a sequence is shown, tags or fusion partners need not be part of it. Values belong to the molecule of their own block, whether it stands above or below them.
Experiments:
[1] = target: T1, Bioease-tagged HSET aa1–150 (human) (UniProt Q9BW19); experiment: pull-down; whole-cell extracts of HeLa cells expressing Bioease-tagged HSET fragments, streptavidin pull-down, western blotting
T1 sequence: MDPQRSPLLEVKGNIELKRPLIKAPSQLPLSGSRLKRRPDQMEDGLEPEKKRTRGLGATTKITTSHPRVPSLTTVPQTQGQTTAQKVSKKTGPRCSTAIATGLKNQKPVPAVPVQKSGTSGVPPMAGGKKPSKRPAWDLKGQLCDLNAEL

[2] = target: T2, CEP215 aa300–600 (tagged fragment expressed in HeLa cells) (human) (UniProt Q96SN8); experiment: pull-down; whole-cell extracts of HeLa cells expressing FLAG-tagged CEP215 fragments (FLAG pull-down) or of CEP215-depleted HeLa cells expressing Bioease-tagged CEP215 fragments (streptavidin pull-down), western blotting
T2 sequence: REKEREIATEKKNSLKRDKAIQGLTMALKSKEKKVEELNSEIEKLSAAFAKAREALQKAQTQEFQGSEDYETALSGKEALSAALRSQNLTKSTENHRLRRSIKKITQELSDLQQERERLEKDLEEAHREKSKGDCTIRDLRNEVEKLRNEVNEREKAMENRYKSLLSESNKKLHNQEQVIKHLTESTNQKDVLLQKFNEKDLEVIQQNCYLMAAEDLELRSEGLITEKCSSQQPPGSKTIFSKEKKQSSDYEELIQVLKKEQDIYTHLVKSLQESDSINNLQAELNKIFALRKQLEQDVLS

[3] = target: T3, CEP215 aa500–700 (tagged fragment expressed in HeLa cells) (human) (UniProt Q96SN8); experiment: as above
T3 sequence: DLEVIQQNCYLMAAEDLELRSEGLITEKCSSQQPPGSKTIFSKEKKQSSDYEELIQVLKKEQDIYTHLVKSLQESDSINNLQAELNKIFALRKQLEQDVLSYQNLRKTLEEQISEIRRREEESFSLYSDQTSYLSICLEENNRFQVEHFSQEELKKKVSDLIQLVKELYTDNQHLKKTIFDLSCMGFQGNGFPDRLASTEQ

[4] = target: CEP215 (human, HeLa) (human (endogenous in HeLa)) (UniProt Q96SN8); experiment: co-IP; whole-cell extracts of mitotic HeLa cells, immunoprecipitation by an anti-CEP215 antibody or random IgG, western blotting
[5] = target: T4, centrosomin (Cnn) (Drosophila (endogenous in Dmel2)) (UniProt P54623); experiment: co-IP; whole-cell extracts of Drosophila Dmel2 cells, immunoprecipitation by an anti-centrosomin (Cnn) antibody, western blotting
T4 sequence: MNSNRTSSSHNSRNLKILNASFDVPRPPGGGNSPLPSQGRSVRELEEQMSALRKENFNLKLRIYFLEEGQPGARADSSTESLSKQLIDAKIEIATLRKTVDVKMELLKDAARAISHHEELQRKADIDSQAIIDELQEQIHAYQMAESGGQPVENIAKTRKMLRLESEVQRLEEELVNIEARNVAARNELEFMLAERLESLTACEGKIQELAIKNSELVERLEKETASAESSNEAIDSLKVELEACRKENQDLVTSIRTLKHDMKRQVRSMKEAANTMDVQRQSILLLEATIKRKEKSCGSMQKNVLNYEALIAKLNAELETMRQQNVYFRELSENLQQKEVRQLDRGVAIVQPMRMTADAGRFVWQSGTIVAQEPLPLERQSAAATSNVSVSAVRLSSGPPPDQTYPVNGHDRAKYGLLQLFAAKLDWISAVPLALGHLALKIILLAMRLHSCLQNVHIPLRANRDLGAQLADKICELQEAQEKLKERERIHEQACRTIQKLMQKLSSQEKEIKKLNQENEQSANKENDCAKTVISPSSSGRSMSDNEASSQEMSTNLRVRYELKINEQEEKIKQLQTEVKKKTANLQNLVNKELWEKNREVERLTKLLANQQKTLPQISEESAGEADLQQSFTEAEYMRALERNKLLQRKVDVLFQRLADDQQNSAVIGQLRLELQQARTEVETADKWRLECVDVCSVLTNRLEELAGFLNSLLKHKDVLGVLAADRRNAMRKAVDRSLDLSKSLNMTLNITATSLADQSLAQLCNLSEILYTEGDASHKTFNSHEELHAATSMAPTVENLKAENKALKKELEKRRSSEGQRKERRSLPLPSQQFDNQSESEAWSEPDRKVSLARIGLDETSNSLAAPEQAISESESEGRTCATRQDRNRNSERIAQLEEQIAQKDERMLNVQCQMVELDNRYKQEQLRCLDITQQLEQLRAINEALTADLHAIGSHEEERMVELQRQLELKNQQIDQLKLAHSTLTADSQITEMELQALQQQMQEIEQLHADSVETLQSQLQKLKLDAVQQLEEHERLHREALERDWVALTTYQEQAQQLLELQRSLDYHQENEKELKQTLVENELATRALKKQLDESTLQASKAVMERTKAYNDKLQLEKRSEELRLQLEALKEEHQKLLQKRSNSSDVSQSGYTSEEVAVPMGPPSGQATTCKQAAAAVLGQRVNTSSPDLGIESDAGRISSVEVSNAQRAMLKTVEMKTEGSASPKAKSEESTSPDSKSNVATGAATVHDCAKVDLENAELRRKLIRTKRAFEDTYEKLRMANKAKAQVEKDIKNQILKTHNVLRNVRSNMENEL

binding [1]: binds
Molecule: CEP215 (human, HeLa) (from UniProt Q96SN8 1-1893)

binding [2]: binds
binding [3]: binds
binding [4]: binds
B1: HSET (human, HeLa) (protein, UniProt Q9BW19 1-673)
chain: MDPQRSPLLEVKGNIELKRPLIKAPSQLPLSGSRLKRRPDQMEDGLEPEKKRTRGLGATTKITTSHPRVPSLTTVPQTQGQTTAQKVSKKTGPRCSTAIATGLKNQKPVPAVPVQKSGTSGVPPMAGGKKPSKRPAWDLKGQLCDLNAELKRCRERTQTLDQENQQLQDQLRDAQQQVKALGTERTTLEGHLAKVQAQAEQGQQELKNLRACVLELEERLSTQEGLVQELQKKQVELQEERRGLMSQLEEKERRLQTSEAALSSSQAEVASLRQETVAQAALLTEREERLHGLEMERRRLHNQLQELKGNIRVFCRVRPVLPGEPTPPPGLLLFPSGPGGPSDPPTRLSLSRSDERRGTLSGAPAPPTRHDFSFDRVFPPGSGQDEVFEEIAMLVQSALDGYPVCIFAYGQTGSGKTFTMEGGPGGDPQLEGLIPRALRHLFSVAQELSGQGWTYSFVASYVEIYNETVRDLLATGTRKGQGGECEIRRAGPGSEELTVTNARYVPVSCEKEVDALLHLARQNRAVARTAQNERSSRSHSVFQLQISGEHSSRGLQCGAPLSLVDLAGSERLDPGLALGPGERERLRETQAINSSLSTLGLVIMALSNKESHVPYRNSKLTYLLQNSLGGSAKMLMFVNISPLEENVSESLNSLRFASKVNQCVIGTAQANRK

binding [5]: no binding
B2: non-claret-disjunctional (ncd) (protein, UniProt P20480 1-700)
chain: MESRLPKPSGLKKPQMPIKTVLPTDRIRAGLGGGAAGAGAFNVNANQTYCGNLLPPLSRDLNNLPQVLERRGGGARAASPEPMKLGHRAKLRRSRSACDINELRGNKRTAAAPSLPSIPSKVSRLGGALTVSSQRLVRPAAPSSITATAVKRPPVTRPAPRAAGGAAAKKPAGTGAAASSGAAAAAPKRIAPYDFKARFHDLLEKHKVLKTKYEKQTEDMGELESMPQQLEETQNKLIETESSLKNTQSDNECLQRQVKQHTAKIETITSTLGRTKEELSELQAIHEKVKTEHAALSTEVVHLRQRTEELLRCNEQQAAELETCKEQLFQSNMERKELHNTVMDLRGNIRVFCRIRPPLESEENRMCCTWTYHDESTVELQSIDAQAKSKMGQQIFSFDQVFHPLSSQSDIFEMVSPLIQSALDGYNICIFAYGQTGSGKTYTMDGVPESVGVIPRTVDLLFDSIRGYRNLGWEYEIKATFLEIYNEVLYDLLSNEQKDMEIRMAKNNKNDIYVSNITEETVLDPNHLRHLMHTAKMNRATASTAGNERSSRSHAVTKLELIGRHAEKQEISVGSINLVDLAGSESPKTSTRMTETKNINRSLSELTNVILALLQKQDHIPYRNSKLTHLLMPSLGGNSKTLMFINVSPFQDCFQESVKSLRFAASVNSCKMTKAKRNRYLNNSVANSSTQSNNSGSFDK
